Measured values from PubChem BioAssay AID2147 (National Center for Advancing Translational Sciences (NCATS), 2009).
Hit rate of the full screen: of about 230,000 compounds, about 3,600 (1.6%) were called active. The inconclusive results got no clear call from the source; some entries with a clear call stand among them for comparison. Calls follow the shape of the dose curve; as a rule, active = well fitted inhibition curve with a large enough effect (not every such curve was filed as active); inconclusive = small, poorly fitted or top-dose-only effect, or another doubt; inactive = no such curve, though single readings can be large or run the other way. Potencies of inconclusive entries are doubtful fits and often do not repeat.

target: Lysine-specific demethylase 4E (Homo sapiens) (UniProt B2RXH2); assay: qHTS Assay for Inhibitors of Human Jumonji Domain Containing 2E (JMJD2E); conditions: JMJD2E catalytic domain, FDH-coupled NADH fluorescence (FDH is formaldehyde dehydrogenase); series mostly up to 57.1 µM
Chain of UniProt B2RXH2 (B2RXH2 whole entry, looked up, the tested form may be a part): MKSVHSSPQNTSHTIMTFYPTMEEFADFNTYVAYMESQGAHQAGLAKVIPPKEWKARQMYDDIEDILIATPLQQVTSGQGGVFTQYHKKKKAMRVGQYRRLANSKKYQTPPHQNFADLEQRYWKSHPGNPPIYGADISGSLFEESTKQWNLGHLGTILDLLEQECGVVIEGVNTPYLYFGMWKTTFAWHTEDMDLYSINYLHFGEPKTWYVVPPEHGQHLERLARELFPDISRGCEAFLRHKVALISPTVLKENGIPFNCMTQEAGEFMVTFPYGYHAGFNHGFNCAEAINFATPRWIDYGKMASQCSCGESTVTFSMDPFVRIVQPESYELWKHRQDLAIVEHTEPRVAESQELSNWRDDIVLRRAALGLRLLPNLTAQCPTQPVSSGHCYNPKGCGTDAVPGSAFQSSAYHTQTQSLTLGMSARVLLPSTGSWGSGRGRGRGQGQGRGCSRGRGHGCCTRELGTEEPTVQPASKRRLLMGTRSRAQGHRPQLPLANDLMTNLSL
Also: nearly all actives have a fitted effect of over 50% in size.
Potency is read from the fitted curve at half-maximal effect; tags tell the direction and shape of the fitted curve.

Row | SMILES | Potency
1 | COc1ccc2c(c1)c1ncn(CCN3CCNCC3)c(=O)c1n2C | inconclusive: 28.2 µM [inhibitor, partial curve]
2 | Cc1cccc(NCc2ccccc2O)c1C | inactive
3 | Cc1cc(/C=N/NC(=O)c2ccc(O)cc2)c(C)n1CC(C)C | inconclusive: 39.8 µM [inhibitor, single point]
4 | CN(Cc1ccccc1)C(=O)COC(=O)c1ccc2ccccc2n1 | inconclusive: 22.4 µM [inhibitor, single point]
5 | O=C1Nc2ccccc2SC(c2ccccc2)C1O (stereo not drawn) | inconclusive: 39.8 µM [inhibitor, single point]
6 | CCCc1ccc(C(=O)[C@@H]2[C@@H](C(C)=O)N3c4ccc(F)cc4C=C[C@@H]3[C@@]23C(=O)Nc2ccccc23)cc1 | active: 14.1 µM
7 | COc1cc2c(OC)cccc2cc1C(=O)O | inconclusive: 31.6 µM [inhibitor, partial curve]
8 | C=CCn1c(SCc2c(C)noc2C)nc2sc3c(c2c1=O)CCCC3 | inconclusive: 25.1 µM [inhibitor, partial curve]
9 | CCN(CC)c1ccc(CN(C(=O)c2ccco2)C2CCS(=O)(=O)C2)cc1 (stereo not drawn) | inactive
10 | O=C(Nc1cccc(C(=O)O)c1)/C(=C\c1ccccc1)NC(=O)c1ccccc1Cl | inconclusive: 39.8 µM [inhibitor, single point]
11 | Cc1cc(C)n(Cc2cc(C(=O)O)c3ccccc3n2)n1 | inactive
12 | Cc1cccc(-n2ccnc2CN2CCN(C(C)C)C(CCO)C2)c1 (stereo not drawn) | inactive
13 | c1ccc(-c2ccc3c(c2)NC(C2Nc4cc(-c5ccccc5)ccc4O2)O3)cc1 (stereo not drawn) | inconclusive: 8.91 µM [inhibitor, partial curve]
14 | Cc1ccccc1NC(=O)COc1ccc2c(c1)OC(C)(C)CC2=O | inconclusive: 28.2 µM [inhibitor, partial curve]
15 | CCOC(=O)c1cc(-c2ccccc2)nc2nc(N3CCCCC3)sc12 | inconclusive: 2.51 µM [inhibitor, partial curve]
16 | COc1ccccc1CNC(=O)C1(C)Oc2cccnc2NC1=O (stereo not drawn) | inconclusive: 39.8 µM [inhibitor, single point]
17 | CCCC(=O)N1N=C(c2ccccc2)CC1c1cn(C)c2ccccc12 (stereo not drawn) | inconclusive: 5.62 µM [inhibitor, single point]
18 | COc1ccc(-c2nn(C)c(=O)c3ccccc23)cc1NC(=O)COc1ccccc1 | inconclusive: 39.8 µM [inhibitor, single point]
19 | Cc1c(C(=O)OCC(=O)Nc2cccc(S(N)(=O)=O)c2)oc2c1ccc1ccccc12 | inconclusive: 3.98 µM [inhibitor, partial curve]
20 | CCC1CN(C)C2Cc3c([nH]c4ccccc34)C(=O)CC1C2C(=O)OC (stereo not drawn) | inconclusive: 31.6 µM [inhibitor, partial curve]
21 | Cc1sc(NC(=O)c2ccco2)c(C(c2cccnc2)N2CCN(c3ccc(F)cc3)CC2)c1C (stereo not drawn) | inconclusive: 39.8 µM [inhibitor, single point]
22 | COC(=O)c1ccccc1NC(=S)N(Cc1ccc2c(c1)OCO2)Cc1cc2cc(OC)ccc2[nH]c1=O | inconclusive: 22.4 µM [inhibitor, partial curve]
23 | CCn1c(SCC(=O)N2CCCCC2C)nnc1-c1ccc(S(=O)(=O)N2CCN(C)CC2)cc1 (stereo not drawn) | inconclusive: 35.5 µM [inhibitor, single point]

Row | SMILES | Potency
24 | NNC(=S)Nc1ccc(OC(F)(F)F)cc1 | inconclusive: 2.51 µM [inhibitor, full curve, poor fit]
25 | O=C(CSc1nc2ccccc2c(=O)n1Cc1ccccc1)NCc1ccco1 | inactive
26 | CCOc1ccc2[nH]c(=O)c(CN(CCc3ccccc3)C(=O)N3CCOCC3)cc2c1 | inconclusive: 28.2 µM [inhibitor, partial curve]
27 | CC(=O)NCCc1ccc(O)cc1 | inconclusive: 39.8 µM [inhibitor, single point]
28 | CCOC(=O)Cn1c(=N)n(CCOc2ccc(Br)cc2)c2ccccc21 | inactive
29 | Cn1cccc1C(C#N)c1ncc(C(F)(F)F)cc1Cl (stereo not drawn) | inconclusive: 39.8 µM [inhibitor, single point]
30 | O=C(NCc1ccccc1)c1ccc(-c2ccccc2F)o1 | inconclusive: 25.1 µM [inhibitor, single point]
31 | Cc1[nH]c2ccccc2c1C(=O)C(=O)NCCOc1ccccc1 | inactive
32 | Cn1c(=O)c([N+](=O)[O-])c(Cl)c2ccccc21 | inactive
33 | CCCOc1ccc2oc(=O)c3c(c2c1)CCCN3C(=O)CN1CCN(C(=O)c2ccco2)CC1 | inconclusive: 28.2 µM [inhibitor, partial curve]
34 | O=C(O)CC/C(=N\Nc1ccc(S(=O)(=O)N2CCOCC2)cc1[N+](=O)[O-])c1cccs1 | inconclusive: 39.8 µM [inhibitor, single point]
35 | COc1cc(C2CC(=O)N3CN(Cc4ccco4)CSC3=C2C#N)ccc1OCc1ccccc1 (stereo not drawn) | inconclusive: 25.1 µM [inhibitor, single point]
36 | CN(c1ccccc1)S(=O)(=O)c1ccc(C(=O)Nc2nnc(C3CC3)o2)cc1 | inconclusive: 39.8 µM [inhibitor, single point]
37 | O=C(Cc1cccs1)N1CCCC(c2nc3c(nnn3Cc3ccccc3Cl)c(=O)[nH]2)C1 (stereo not drawn) | inactive
38 | CCOC(=O)c1c(NC(=O)COC)sc2c1CCCC2 | inconclusive: 39.8 µM [inhibitor, single point]
39 | O=C(COc1ccc(S(=O)(=O)N2CCCC2)cc1)NCC1CCCO1 (stereo not drawn) | inactive
40 | Cn1nc(C(C)(C)C)cc1C(=O)O | inconclusive: 7.08 µM [inhibitor, single point]
41 | c1ccc(CNc2nc3ccccc3n3cnnc23)cc1 | inconclusive: 35.5 µM [inhibitor, single point]
42 | CCc1ccc(NC(=O)CN(c2ccccc2)S(=O)(=O)N(C)C)cc1 | inconclusive: 0.02 µM [inhibitor, full curve, poor fit]
43 | COc1cccc(OC)c1CC1SC(=O)NC1=O (stereo not drawn) | inactive
44 | OCCN(Cc1ccccc1)Cc1ccccc1O | inconclusive: 39.8 µM [inhibitor, single point]
45 | Cc1cccn2cc(-c3c[nH]c4ccccc34)nc12 | inconclusive: 35.5 µM [inhibitor, partial curve]
46 | CCCCN(CC)C(=O)CSc1nc2n[nH]c(C)c2c(=N)n1-c1cccc(C)c1 | inconclusive: 35.5 µM [inhibitor, single point]

Row | SMILES | Potency
47 | Cc1ccccc1C(=O)NNC(=O)Nc1ccccc1 | inactive
48 | Cc1ccc(CN(CC(=O)N/N=C/c2ccccc2[N+](=O)[O-])S(=O)(=O)c2ccc(C)cc2)cc1 | inactive
49 | CNC(=S)N/N=C/c1ccc(N(C)C)cc1 | inconclusive: 31.6 µM [inhibitor, partial curve]
50 | NC(=O)COC(=O)c1cc(=O)[nH]c2ccccc12 | inconclusive: 31.6 µM [inhibitor, partial curve]
51 | O=C(NC(=S)Nc1ccc(-c2nc3ncccc3o2)cc1)c1ccccc1F | inconclusive: 31.6 µM [inhibitor, partial curve]
52 | O=C1NC(c2ccccc2)=C(c2ccc3ccccc3n2)C(c2ccccc2)N1 (stereo not drawn) | inconclusive: 35.5 µM [inhibitor, single point]
53 | COC(=O)[C@@]1(Cc2ccc(F)cc2)[C@H]2c3cc(C(=O)N(C)C)n(Cc4ccc(C(F)(F)F)nc4)c3C[C@H]2CN1C(=O)c1ccccc1 | inactive
54 | CCc1c(C)sc(NC(=O)c2cccs2)c1C(=O)OC(C)C | inconclusive: 3.55 µM [inhibitor, full curve]
55 | CCN1CC2([N+](=O)[O-])C=CC(=O)C([N+](=O)[O-])(C1)C2CC(=O)c1ccccc1 (stereo not drawn) | inconclusive: 35.5 µM [inhibitor, single point]
56 | CC1CC(C)CN(S(=O)(=O)c2ccc(NC(=O)C3COc4ccccc4O3)cc2)C1 (stereo not drawn) | inactive
57 | CC(C)CNc1nc(S(=O)(=O)c2ccccc2)c(Cl)s1 | inactive
58 | CC(C)=CCC/C(C)=C/C(=O)O | inconclusive: 28.2 µM [inhibitor, single point]
59 | N#C/C(=C(/O)COC(=O)c1ccc(O)cc1)c1nc2ccccc2[nH]1 | inconclusive: 39.8 µM [inhibitor, single point]
60 | Cc1noc(C)c1COC(=O)c1cccc(N(C)C)c1 | inconclusive: 31.6 µM [inhibitor, single point]
61 | COc1cc(C(=O)Nc2nnc(C3CC3)s2)ccc1OCc1c(C)noc1C | inconclusive: 39.8 µM [inhibitor, single point]
62 | O=C(Cc1c(F)cccc1Cl)Nc1cc(S(=O)(=O)N2CCCCC2)ccc1N1CCOCC1 | inconclusive: 31.6 µM [inhibitor, single point]
63 | OC(C#CCN1CCOCC1)c1cccs1 (stereo not drawn) | inconclusive: 39.8 µM [inhibitor, single point]
64 | COc1ccc(COc2cc(-c3cccc(OC)c3)nc3ccc(NC(C)=O)cc23)cc1 | inconclusive: 28.2 µM [inhibitor, partial curve]
65 | COc1cc(C2C3=C(CCCC3=O)Nc3ccc4ncccc4c32)ccc1O (stereo not drawn) | inconclusive: 39.8 µM [inhibitor, single point]
66 | CCOC(=O)c1nc(Nc2ccc(C(=O)O)cc2)c2ccccc2n1 | inactive
67 | O=C(Nc1ccc(Cl)cc1)Nc1ccccc1C(=O)NCc1ccco1 | inconclusive: 31.6 µM [inhibitor, partial curve]
68 | COC(=O)c1cc(-c2ccc(C)o2)nc2ccccc12 | inconclusive: 28.2 µM [inhibitor, partial curve]
